Assay results from PubChem BioAssay AID624418 (National Center for Advancing Translational Sciences (NCATS), 2012).
Screen size: about 410,000 compounds; about 530 (0.13%) were called active. This list was built around the results that the source calls inconclusive (neither active nor inactive); the mix of calls is not that of the screen. Calls follow the shape of the dose curve; as a rule, active = well fitted inhibition curve with a large enough effect; inconclusive = small, poorly fitted or top-dose-only effect, or another doubt; inactive = no such curve, though single readings can be large or run the other way. Where the call is inconclusive, the potency comes from a doubtful curve fit.

test: qHTS of GLP-1 Receptor Inverse Agonists: Cytotox Screen; settings: HEK293 cAMP-luciferase reporter cells, luminescence, 24 h; activity change, negative = inhibition: at 38.3 µM (top of the series)
Summary of the method: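 MLSMR compounds, 24 hr on cells at 37 deg C/5% CO2; luminescence after luciferase reagent (12 min RT). Inhibition counted as the undesired cytotoxic outcome.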
% is scaled to controls: 0 for no effect and ±100 for the full control effect; potency is read from the fitted curve at half-maximal effect.

Row | SMILES | Potency | activity change, negative = inhibition
1 | O=C(CN1CCCCC1)N1CCc2ccccc21 | inactive | –
2 | CC(/C=C/c1ccco1)=N\NC(=O)CNc1cccc(C)c1 | inactive | –
3 | COc1ccccc1N1CCN(CC(O)COc2ccc(C)c(C)c2)CC1 (centres undefined) | inactive | –
4 | Cc1ccc(C(=O)N2CCN(c3ccc([N+](=O)[O-])c(N4CCOCC4)c3)CC2)cc1 | inconclusive: 12.6 µM [inhibitor, single point] | –
5 | Cc1nn(-c2ccccc2)c(C)c1/C=N/Nc1nc2ccccc2[nH]1 | inconclusive: 28.2 µM [inhibitor, single point] | –
6 | CCCSCCCNC(=O)c1ccc2c(c1)nc1n2CCCCC1 | inactive | –
7 | CCOc1ccc(Nc2ccc(C(=O)O)cc2[N+](=O)[O-])cc1 | inconclusive: 31.6 µM [inhibitor, single point] | –
8 | CCCN(CCC)S(=O)(=O)c1ccc(Cl)c([N+](=O)[O-])c1 | active: 12.6 µM | –
9 | Cc1ccccc1C(=O)Nc1cccc(NC(=S)NC(=O)c2cccs2)c1 | inconclusive: 28.2 µM [inhibitor, single point] | –
10 | O=c1o[nH]c(-c2ccccc2)c1-c1ccccc1 | inconclusive: 28.2 µM [inhibitor, single point] | –
11 | O=C(Cc1ccccc1)N(Cc1cccnc1)c1nc2ccc(F)cc2s1 | inactive | –
12 | CCN(CC(=O)NC(=O)NCc1ccccc1)Cc1nc2ccccc2c(=O)[nH]1 | active: 6.31 µM | –
13 | Cc1noc(C)c1C(=O)OCC(=O)Nc1cccc(S(=O)(=O)N(C)C)c1 | inactive | –
14 | O=C1[C@H]2[C@@H](c3ccc(C(F)(F)F)cc3)N[C@]3(CCCN(Cc4ccc(F)cc4)C3=O)[C@H]2C(=O)N1Cc1ccccc1 | inconclusive: 0.251 µM [inhibitor, full curve, poor fit] | –
15 | COCCn1c(SCC(=O)Nc2ccc(NC(=O)c3ccco3)c(OC)c2)nc2ccccc2c1=O | inconclusive: 3.55 µM [inhibitor, full curve] | –
16 | CCOC(=O)N1CCN(C(=O)CN(c2ccccc2OC)S(=O)(=O)c2ccc(C)cc2)CC1 | – | inconclusive: -31.8% [inhibitor]
17 | Oc1[nH]c(N=C2N=c3ccccc3=N2)c2ccccc12 | inconclusive: 8.91 µM [inhibitor, partial curve, poor fit] | –
18 | C=CCC[C@H](Cc1ccc(F)cc1)C(=O)OC[C@@H](NC(=O)[C@@H](CC=C)CC(=O)N[C@H](CO)Cc1ccccc1)C(C)(C)C | inconclusive: 3.98 µM [inhibitor, partial curve] | –
19 | CCOc1ccc(S(=O)(=O)N(CC(=O)N/N=C/c2cccs2)c2ccc(C)cc2)cc1 | inconclusive: 10 µM [inhibitor, partial curve] | –
20 | Cc1cccc(Nc2nc(N)c([N+](=O)[O-])c(N3CC(C)CC(C)C3)n2)c1 (centres undefined) | inconclusive: 28.2 µM [inhibitor, single point] | –
21 | O=C(Nc1ccc(S(=O)(=O)N2CCOCC2)cc1)c1cc(-c2cc(Cl)ccc2O)n[nH]1 | inconclusive: 7.08 µM [inhibitor, partial curve] | –
22 | COc1ccc(NC(=O)c2cc(-c3cc(OC)c(OC)c(OC)c3)nc3ccccc23)c(OC)c1 | inconclusive: 28.2 µM [inhibitor, single point] | –

Row | SMILES | Potency | activity change, negative = inhibition
23 | CCS(=O)CC(=O)Nc1c(-c2ccccc2)oc2ccccc2c1=O (centres undefined) | inconclusive: 8.91 µM [inhibitor, partial curve, poor fit] | –
24 | CCOP(=O)(OCC)C(NC(=O)Nc1cccc(Cl)c1)c1ccccc1 (centres undefined) | inactive | –
25 | COc1ccc(NC(=O)c2cc(-c3cc(Cl)ccc3OC)n[nH]2)c(OC)c1 | inconclusive: 12.6 µM [inhibitor, single point] | –
26 | Cc1cc(C)cc(NC(=S)NC2CC3CCCC(C2)N3C2CC2)c1 (centres undefined) | inconclusive: 3.55 µM [inhibitor, full curve, poor fit] | –
27 | COc1ccc(Nc2cc(C)nc(-n3nc(C)cc3C)n2)cc1Cl | inconclusive: 1 µM [inhibitor, full curve, poor fit] | –
28 | COc1ccc(-c2cc(C(=O)Nc3c(Cl)cccc3Cl)no2)cc1OC | inactive | –
29 | O=C(Nc1ccccc1)c1ccccc1N=Cc1ccccc1O | inactive | –
30 | O=C(CN(C(=O)c1csnn1)c1cccc(F)c1)NC1CCCC1 | inconclusive: 4.47 µM [inhibitor, full curve, poor fit] | –
31 | O=C(CCn1c(=S)oc2ccccc21)N1CCCCC1 | inconclusive: 5.01 µM [inhibitor, full curve] | –
32 | NNC(=O)CNC(=O)c1ccc(F)cc1 | inconclusive: 28.2 µM [inhibitor, single point] | –
33 | Cc1ccc(-c2cc(C(=O)O)n(Cc3ccccc3)n2)cc1 | inactive | –
34 | Cc1ccc(CNc2ccc(-c3nc(-c4ccco4)no3)cc2[N+](=O)[O-])cc1 | inactive | –
35 | COc1cccc(NC(=O)CSc2nc3ccc(NC(=O)c4ccco4)cc3s2)c1 | inactive | –
36 | CCNC(=O)c1ccc(CSc2ccc(Cl)cc2)cc1 | inactive | –
37 | COc1ccc(CC(=O)OCN2C(=O)c3ccccc3C2=O)cc1OC | inconclusive: 5.62 µM [inhibitor, partial curve, poor fit] | –
38 | CC(=O)Nc1ccc(OCC(O)Cn2c3ccccc3c3ccccc32)cc1 (centres undefined) | inconclusive: 17.8 µM [inhibitor, single point] | –
39 | COCCNC(=O)C(c1ccc(F)cc1)N(C(=O)CCC(=O)Nc1ccccn1)C1CCCCC1 (centres undefined) | inconclusive: 14.1 µM [inhibitor, single point] | –
40 | CCCN1CNC(=S)N(c2ccc(C)cc2C)C1 | inconclusive: 22.4 µM [inhibitor, single point] | –
41 | Cn1ncc([N+](=O)[O-])c1C(=O)Nc1ccc2c(c1)OCCO2 | inactive | –
42 | Cc1ccc(NC(=O)c2sccc2C)nc1 | inconclusive: 28.2 µM [inhibitor, single point] | –
43 | COc1cc(/C=C2\SC(=S)N(NC(=O)c3ccc(O)cc3)C2=O)ccc1O | inconclusive: 11.2 µM [inhibitor, single point] | –
44 | COc1ccc(-n2nc(C(=O)NCC(=O)NCCCN3CC(C)CC(C)C3)c3ccccc3c2=O)cc1Cl (centres undefined) | inconclusive: 11.2 µM [inhibitor, partial curve] | –
